B1: SCR-7782-001-H1-hFc (Fc fusion)
chain: EVQLVESGGGLVQPGGSLRLSCAASGFTFSRGSMSWFRQAPGKEREGVAIISSDGWTGYADSVKGRFTISRDNAKNSLYLQMNSLRAEDTAVYYCAASFLVLRALNPKAWHYWGQGTMVTVSS[omitted - human IgG1 Fc with C220S (EU numbers)]
notes: VHH-huFc (C220S) order with human hinge and Fc; also called SCR-7782 humanized antibody
B2: SCR-7785-001-H2-hFc (Fc fusion)
chain: EVQLVESGGGVVQPGGSLRLSCAASGFTFSRGSWGWFRQAPGKEREAVALISSDGWTFYADSVKGRFTISQDNSKNTLYLQMNSLRAEDTAVYYCAASVLVLRTLNPKAWHHWGQGTMVTVSS[omitted - human IgG1 Fc with C220S (EU numbers)]
notes: VHH-huFc (C220S) order with human hinge and Fc; also called SCR-7785 humanized antibody
B3: SCR-7785-001-H3-hFc (Fc fusion)
chain: B2 chain with F27D
notes: as for B2
B4: SCR-7785-001-H6-hFc (Fc fusion)
chain: B2 chain with F27D, A40R, V92M, M118Q
notes: as for B2
B5: SCR-7785-001-H7-hFc (Fc fusion)
chain: B2 chain with V5Q, E6A, F27D
notes: as for B2
B6: SCR-7782-001-H2-hFc (Fc fusion)
chain: B1 chain with R71Q
notes: as for B1
B7: SCR-7785-001-H5-hFc (Fc fusion)
chain: B2 chain with F27D, V92M, M118Q
notes: as for B2
B8: SCR-7785-001-H4-hFc (Fc fusion)
chain: B2 chain with F27D, S74T
notes: as for B2
B9: SCR-7783-001-H4-hFc (Fc fusion)
chain: DVQLVESGGGLVQPGGSLRLSCAASGFPSSRGTMAWFRQAPGKEREGVAFINSDGRTSYAESVKGRFTISRDNALSSLYLQMNSLRAEDTAVYYCAASLLYLMTVNAAAYPYWGQGTMVTVSS[omitted - human IgG1 Fc with C220S (EU numbers)]
notes: VHH-huFc (C220S) order with human hinge and Fc; also called SCR-7783 humanized antibody
B10: SCR-7783-001-H6-hFc (Fc fusion)
chain: B9 chain with V5Q, E6A
notes: as for B9
B11: SCR-7783-001-H7-hFc (Fc fusion)
chain: B9 chain with V92M, M118Q
notes: as for B9
B12: SCR-7783-001-H5-hFc (Fc fusion)
chain: B9 chain with Y79W
notes: as for B9

Substitutions are numbered along the chain they refer to. In names and notes the source's numbering stands.

This experiment concerns the target T1, Human MUC17 ECD4131-his (His-tagged human MUC17 protein extracellular domain fusion protein) (human, UniProt Q685J3 partial chain).
T1 construct: a truncation of the extracellular domain; also called human MUC17-his protein; human MUC17-His
T1 sequence (Q685J3 other isoform, or with tags, fused parts or gaps): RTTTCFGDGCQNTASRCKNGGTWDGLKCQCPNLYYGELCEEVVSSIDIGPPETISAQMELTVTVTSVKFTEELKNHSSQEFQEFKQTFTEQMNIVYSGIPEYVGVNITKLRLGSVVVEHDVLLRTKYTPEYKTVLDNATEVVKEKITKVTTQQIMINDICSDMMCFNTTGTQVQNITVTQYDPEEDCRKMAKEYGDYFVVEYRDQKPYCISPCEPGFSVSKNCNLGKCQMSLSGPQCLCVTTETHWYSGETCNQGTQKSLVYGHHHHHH
Put plainly: SPR (Biacore 8K), antibody captured on Protein A. How it is done:
The strength of antibody-antigen binding was assayed with a BIAcore 8K instrument using an Protein A capture method. First, Protein A was immobilized onto a CM4 chip (purchased from GE, BR-1005-34) using an amino coupling method. According to the instruction of the Amine Coupling Kit (purchased from GE, BR100633), NHS and EDC were mixed with HBS-EP+ pH 7.4 as a mobile phase to activate the chip for about 600 s; the Protein A was diluted to 50 µg/mL with 10 mM sodium acetate (pH 4.5) and injected for 600 s, and finally, the remaining activated sites were blocked with ethanolamine. Then, the affinity of the antibody for the antigen was assayed using a multi-cycle kinetic method; in each cycle, first, the antibody to be tested was captured using the Protein A chip, and then a single concentration of antigen protein was injected. The association and dissociation processes of the antibody with the antigen protein were recorded, and finally, the chip was regenerated using Glycine pH 1.5, wherein the mobile phase was HBS-EP+ (10 mM HEPES, 150 mM NaCl, 3 mM EDTA, 0.05% surfactant P20), the flow rate was […], the regeneration time was 30 s, and the assay temperature was 25° C. Finally, according to a 1:1 binding model, the data were analyzed, and the antibody-antigen binding kinetics parameters, including the association rate constant Ka, the dissociation rate constant Kd, the equilibrium dissociation constant KD, and the maximum binding signal Rmax, were fitted. The association rate (Ka), dissociation rate (Kd), and binding affinity (KD) of the recombinant antibodies Lab315-huFc, Lab316-huFc, Lab320-huFc, Lab331-huFc, and Lab332-huFc with the human MUC17 protein are shown in Table 5.
After the finally obtained various humanized antibodies were expressed and purified, the affinity of the humanized antibodies for the human MUC17 protein was assayed according to the method in Example 3.6.
The molecule B1 came in with a Kd of 2210 pM, a koff of 0.000411 s⁻¹ and a kon of 186000 M⁻¹ s⁻¹.
Regarding B2, the Kd came out at 1900 pM, the koff worked out at 0.00069 s⁻¹ and the kon was determined as 363000 M⁻¹ s⁻¹.
B3 returned a Kd of 234 pM, a koff of 7.24e-05 s⁻¹ and a kon of 309000 M⁻¹ s⁻¹.
For B4, the Kd stood at 222 pM, the koff was determined as 6.29e-05 s⁻¹ and the kon came out at 284000 M⁻¹ s⁻¹.
Molecule B5 returned a Kd of 290 pM, a koff of 8.41e-05 s⁻¹ and a kon of 290000 M⁻¹ s⁻¹.
B6 returned a Kd of 1280 pM, a koff of 0.000256 s⁻¹ and a kon of 200000 M⁻¹ s⁻¹.
B7: the Kd worked out at 240 pM, the koff came out at 7.19e-05 s⁻¹ and the kon came out at 300000 M⁻¹ s⁻¹.
The molecule B8 returned a Kd of 241 pM, a koff of 7.41e-05 s⁻¹ and a kon of 307000 M⁻¹ s⁻¹.
For B9, in that order: 409 pM, 8.77e-05 s⁻¹ and 214000 M⁻¹ s⁻¹.
B10 gave a Kd of 498 pM, a koff of 9.61e-05 s⁻¹ and a kon of 193000 M⁻¹ s⁻¹.
In the same order, the values of B11 are 391 pM, 8.52e-05 s⁻¹ and 218000 M⁻¹ s⁻¹.
The molecule B12 came in with a Kd of 483 pM, a koff of 9.07e-05 s⁻¹ and a kon of 188000 M⁻¹ s⁻¹.

The values are drawn from US20250297030A1 (SHANDONG SIMCERE BIOPHARMACEUTICAL, published 2025).
